According to PubChem BioAssay AID504832 (National Center for Advancing Translational Sciences (NCATS), 2011):
The campaign covered roughly 310,000 compounds. About 18,000 (5.8%) were called active. This list was built around the results that the source calls inconclusive (neither active nor inactive); the mix of calls is not that of the screen. Calls follow the shape of the dose curve; as a rule, active = well fitted inhibition curve with a large enough effect; inconclusive = small, poorly fitted or top-dose-only effect, or another doubt; inactive = no such curve, though single readings can be large or run the other way. Potencies of inconclusive entries are left out as doubtful fits.

Test: Primary qHTS for delayed death inhibitors of the malarial parasite plastid, 48 hour incubation
Conditions: P. falciparum luciferase growth in erythrocytes; series mostly up to 28.7 µM; activity change, negative = inhibition: at the top concentration
Summary of the method: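 Luminescence readout; reporter = integrated firefly luciferase in P. falciparum. RBC culture at 2% hematocrit, 0.1% parasitemia final, 37 C/5% CO2; decreased signal taken as growth inhibition.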
% is scaled to controls: 0 for no effect and ±100 for the full control effect; potency is read from the fitted curve at half-maximal effect; tags tell the direction and shape of the fitted curve.

Row | Compound | activity change, negative = inhibition | Potency
1 | COc1ccc(CNC(=O)[C@@H](NC(=O)C2CCN(S(=O)(=O)c3ccccc3)CC2)C(C)C)cc1 | inactive: -1.5% | –
2 | CCOc1cccc(NC(=O)C2CC(=O)N(C)C(=Nc3ccccc3)S2)c1 (stereo not drawn) | – | inconclusive [inhibitor, partial curve, poor fit]
3 | Cc1ccc(S(=O)(=O)N2CCN(C(=O)C(C)Cn3cncn3)CC2)cc1 (stereo not drawn) | inactive: 5.62% | –
4 | CCS(=O)(=O)Nc1cc(OC)c(OC)cc1Cc1nccc2cc(OC)c(OC)cc12 | inactive: -27.6% | –
5 | CCC(Oc1ccccc1)C(=O)N1CCN(S(=O)(=O)c2ccccc2)CC1 (stereo not drawn) | – | inconclusive [inhibitor, partial curve]
6 | CC1CCc2sc(C(=O)NCC(C)(C)N3CCOCC3)cc2C1 (stereo not drawn) | – | inconclusive [inhibitor, single point]
7 | COC(=O)c1cc(C(=O)NC(C)(C)CC(C)(C)C)cc([N+](=O)[O-])c1 | – | inconclusive [inhibitor, single point]
8 | COc1ccc(OC)c(NC(=O)CSc2nc(=O)n(Cc3ccccn3)c3c2CCC3)c1 | – | inconclusive [inhibitor, single point]
9 | O=C(Nc1ccc2oc(-c3ccccc3Cl)nc2c1)c1ncn[nH]1 | inactive: 102% | –
10 | C=CCNC(=O)c1c(CSc2ccccc2)noc1C(=O)NCc1ccccc1 | – | inconclusive [inhibitor, single point]
11 | CC1Cc2cc(/C(O)=C3/C(=O)C(=O)N(CCCn4ccnc4)C3c3cccc([N+](=O)[O-])c3)ccc2O1 (stereo not drawn) | inactive: 50.5% | –
12 | CC(C)c1ccccc1NC(=S)NN(Cc1ccccc1)c1ccccc1 | – | inconclusive [inhibitor, full curve, poor fit]
13 | CCOc1ccc(NC(=O)NC2CCOC(C)(C)C2)cc1 (stereo not drawn) | – | inconclusive [inhibitor, partial curve, poor fit]
14 | Nc1ccn(CC(=O)NCCCc2ccccc2)c(=O)n1 | inactive: 20.7% | –
15 | O=C(NCCN1CCc2ccccc2C1)C1CCN(S(=O)(=O)N2CCC3(CC2)OCCO3)CC1 | – | inconclusive [inhibitor, single point]
16 | C=COCCNC(=S)Nc1ccccc1 | – | inconclusive [inhibitor, full curve, poor fit]
17 | CC1Nc2ncnc(N3CCN(c4ccccc4)CC3)c2N(Cc2ccc(Br)cc2)C1=O (stereo not drawn) | – | active: 13.1 µM
18 | Fc1cccc(/C=N/N=C/c2cccc(F)c2)c1 | – | inconclusive [inhibitor, partial curve]
19 | Cc1sc(N(C(=O)CCc2ccccc2)c2ccc(C(=O)O)cc2)nc1-c1ccccc1 | – | inconclusive [inhibitor, single point]
20 | COc1cc(CC(=O)Nc2nc(C)cs2)cc(OC)c1OC | – | inconclusive [inhibitor, single point]
21 | Cc1ccc(-n2c(SCC(=O)Nc3ccc(N4CCOCC4)cc3)nc3ccccc3c2=O)cc1 | – | inconclusive [inhibitor, single point]
22 | O=C(Nc1nnc(SCCC2OCCO2)s1)C1CC(=O)N(c2ccc(F)cc2)C1 (stereo not drawn) | – | inconclusive [inhibitor, partial curve, poor fit]
23 | COc1ccc(C)cc1S(=O)(=O)Nc1ccc(-n2c(C)nc3ccccc3c2=O)cc1 | – | inconclusive [inhibitor, single point]

Row | Compound | activity change, negative = inhibition | Potency
24 | COc1ccc(/C=C/CN2CCCC(C(=O)c3cc(F)ccc3F)C2)cc1 (stereo not drawn) | – | inconclusive [inhibitor, single point]
25 | CN(Cc1cccc(Cl)c1Cl)C(=O)c1cccc(S(=O)(=O)N2CCN(Cc3ccccc3)CC2)c1 | – | inconclusive [inhibitor, single point]
26 | COCCNCC(=O)N1CCCCCC1 | inactive: -1.55% | –
27 | COc1ccc(CN(C)C(=O)c2cccc(C(=O)N(C)Cc3ccc(OC)cc3)c2)cc1 | – | inconclusive [inhibitor, single point]
28 | NCC12CC3CC(C1)CC(c1ccc(Cl)cc1)(C3)C2 | – | inconclusive [inhibitor, single point]
29 | CCOc1ccc(CO[C@@H]2O[C@H](CO)[C@@H](O)[C@H](O)[C@H]2NC(C)=O)cc1OC | inactive: 34.9% | –
30 | CCCCNC(=O)c1cn(CC)c2ccc(S(=O)(=O)N3CCCCCC3)cc2c1=O | – | inconclusive [inhibitor, partial curve]
31 | Cn1c(=O)c2c(nc(SCCN3CCCCC3)n2Cc2ccccc2)n(C)c1=O | – | inconclusive [inhibitor, partial curve]
32 | COc1ccccc1CNC(=O)/C=C/c1ccc(S(=O)(=O)NCc2ccco2)cc1 | – | inconclusive [inhibitor, single point]
33 | C[N+]1(CC(O)COCC2COc3ccccc3O2)CCOCC1 (stereo not drawn) | inactive: -25.7% | –
34 | CCN(CC)CCN(C(=O)CCOc1ccccc1)c1nc2ccc(F)cc2s1 | inactive: 26.2% | –
35 | COc1ccc(-n2c3c(cc(C(=O)NC4CCSC4=O)c2=O)C(=O)CC(C)(C)C3)cc1 (stereo not drawn) | inactive: -9.38% | –
36 | O=C(c1ccc(S(=O)(=O)c2ccc(F)cc2)c([N+](=O)[O-])c1)N1CCCCCC1 | – | active: 3.29 µM
37 | Cc1ccc(C)c(S(=O)(=O)N2CCN(C(=O)Cc3ccc(S(=O)(=O)N4CCOCC4)s3)CC2)c1 | – | inconclusive [inhibitor, single point]
38 | CCCCn1ccnc1C(=O)c1ccc(S(=O)(=O)N2CCCC2)cc1 | inactive: -19.8% | –
39 | CN(C)c1ccc(CNCCC(Cc2ccccc2)c2ccco2)cc1 (stereo not drawn) | – | inconclusive [inhibitor, partial curve, poor fit]
40 | CCCCNS(=O)(=O)c1ccc2nc(SCC(=O)c3ccc(C#N)cc3)[nH]c2c1 | – | inconclusive [inhibitor, single point]
41 | c1ccc2c(c1)OCC(c1nnc3n1-c1ccccc1SC3)O2 (stereo not drawn) | – | inconclusive [inhibitor, single point]
42 | CC(=O)O[C@H]1C[C@@]2(C)[C@H](C[C@@H](O)[C@H]3[C@@]4(C)CC[C@@H](O)[C@@H](C)[C@H]4CC[C@@]32C)C1=C(CCC=C(C)C)C(=O)O | inactive: -6% | –
43 | COCCn1c(=O)[nH]c2cc(C(=O)N3CCN(c4ccccc4OC)CC3)ccc2c1=O | – | inconclusive [inhibitor, partial curve, poor fit]
44 | CN(CC(=O)Nc1ccccc1Cl)C(=O)COC(=O)c1cc(S(=O)(=O)N(C)C)ccc1N1CCCC1 | inactive: 9.06% | –
45 | Cc1ccc(NC(=O)CCCn2nc(C)c3c(C)n(-c4ccccc4)nc3c2=O)c(Cl)c1 | – | inconclusive [inhibitor, partial curve]
46 | CN1CCS/C1=C/C=C1/SC(=S)N(Cc2ccccc2)C1=O | – | inconclusive [inhibitor, partial curve, poor fit]

Row | Compound | activity change, negative = inhibition | Potency
47 | Cc1cc(OCCCCN2C(=O)NC(C)(C)C2=O)ccc1[N+](=O)[O-] | inactive: 73.8% | –
48 | Cc1c(/C=C(\CC(=O)O)c2nc3ccccc3s2)cc(C#N)n1C | – | inconclusive [inhibitor, partial curve, poor fit]
49 | COc1ccc(C(=O)NC2CC2)cc1OC1CCN(Cc2ccc(NC(C)=O)cc2)CC1 | inactive: -2.26% | –
50 | CCCCN(CCCC)C(=O)c1c[nH]c2ccc(S(=O)(=O)Nc3cccc(Cl)c3C)cc2c1=O | inactive: 7.83% | –
51 | CCOC(=O)C1=C(N)Oc2cc(O)ccc2C1c1cccc([N+](=O)[O-])c1 (stereo not drawn) | inactive: -8.14% | –
52 | Cc1cc(/C=N/NC(=O)c2cccc([N+](=O)[O-])c2)c(C)n1-c1ccc(Cl)cc1Cl | – | inconclusive [inhibitor, single point]
53 | COc1cc(OC)c(C(=O)Nc2cc(Cl)ccc2-n2cncn2)cc1OC | – | active: 5.86 µM
54 | COc1cc(-c2nn3c(Cc4ccccc4)nnc3s2)cc(OC)c1OC | – | active: 10.4 µM
55 | NC(=O)c1c(-c2ccc(Cl)cc2Cl)csc1NC(=O)Cc1ccccc1 | – | inconclusive [inhibitor, single point]
56 | N#Cc1cc(C(=O)c2cc(Cl)ccc2O)cn(CC2CCCO2)c1=O (stereo not drawn) | – | inconclusive [inhibitor, full curve, poor fit]
57 | C=C/C(C)=C/C[C@H]1C(=C)CCC2[C@](C)(C(=O)O)CCC[C@@]21C (stereo partly drawn) | – | inconclusive [inhibitor, single point]
58 | COc1ccc(/C(O)=C2/C(=O)C(=O)N(CCCN(C)C)C2c2ccc(C)o2)cc1Cl (stereo not drawn) | inactive: 13.9% | –
59 | N/C(=N\NC(=O)c1ccc(Cl)cc1)c1cnccn1 | – | inconclusive [inhibitor, single point]
60 | CC(=O)N1CCN(CC(=O)Nc2ccc([N+](=O)[O-])cc2Br)CC1 | inactive: 13.1% | –
61 | CN(CC(=O)Nc1ccc(Cl)cc1)CC(=O)Nc1cccc(Br)c1 | inactive: 14.7% | –
62 | O=C(NCCCN1CCOCC1)C(Sc1ccccc1)c1ccccc1 (stereo not drawn) | inactive: -10.1% | –
63 | CCCn1c(=O)cc(N)n(-c2ccc(OC(F)(F)F)cc2)c1=O | inactive: 7.89% | –
64 | Cc1ccc(-c2cc(C(=O)OCn3nnc4ccccc4c3=O)c3ccccc3n2)cc1 | inactive: -21% | –
65 | O=C(Nc1ncc(S(=O)(=O)c2ccc([N+](=O)[O-])cc2)s1)c1cccnc1 | – | inconclusive [inhibitor, partial curve, poor fit]
66 | Cc1ccc(NS(=O)(=O)c2csc(C(N)=O)c2)cc1C | – | inconclusive [inhibitor, partial curve, poor fit]
67 | COc1cc(SC)ccc1C(=O)Nc1ccc2ncccc2c1 | inactive: 181% | –
68 | COc1ccc(/C(N)=N/OC(=O)Cc2ccc(OC)c(OC)c2)cc1 | – | inconclusive [inhibitor, full curve, poor fit]
